{"source": "the supplement of paper PMC4604168 (melanoma cell lines)", "note": "Some of the results follow. Repeats are few or missing, and single values can be far off.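 Also: cells treated in 1,536-well plates, then fixed and DAPI-stained, with nuclei counted from automated high-throughput microscope images.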"}
{"system": "COLO792", "assay": "cell count relative to DMSO control; melanoma cells; higher = more viable cells", "conditions": "library dose: standard library concentration; 72 h", "units": {"cell count": "%"}}
{"smiles": "CS(=O)(=O)c1ccc(C(=O)Nc2ccc(Cl)c(-c3ccccn3)c2)c(Cl)c1", "note": "[vismodegib] + CNC(=O)c1cc(Oc2ccc(NC(=O)Nc3ccc(Cl)c(C(F)(F)F)c3)cc2)ccn1 [sorafenib] (first compound 5 µM, partner dose 2 µM)", "cell count": 106}
{"smiles": "C=C(c1ccc(C(=O)O)cc1)c1cc2c(cc1C)C(C)(C)CCC2(C)C", "note": "[Bexarotene] + Clc1ccc(Nc2nnc(Cc3ccncc3)c3ccccc23)cc1 [vatalanib] (first compound 10 µM, partner dose 10 µM)", "cell count": 61.8}
{"smiles": "CN(c1ncccc1CNc1nc(Nc2ccc3c(c2)CC(=O)N3)ncc1C(F)(F)F)S(C)(=O)=O", "note": "+ CO[C@H]1C[C@@H]2CC[C@@H](C)[C@@](O)(O2)C(=O)C(=O)N2CCCC[C@H]2C(=O)O[C@H]([C@H](C)C[C@@H]2CC[C@@H](OCCO)[C@H](OC)C2)CC(=O)[C@H](C)/C=C(\\C)[C@@H](O)[C@@H](OC)C(=O)[C@H](C)C[C@H](C)/C=C/C=C/C=C/1C [everolimus] (first compound 0.4 µM, partner dose 0.1 µM)", "cell count": 58.8}
{"smiles": "NC1(c2ccc(-c3nc4ccn5c(=O)[nH]nc5c4cc3-c3ccccc3)cc2)CCC1", "note": "+ Cc1cc(N2CCOCC2)cc2[nH]c(-c3c(NC[C@@H](O)c4cccc(Cl)c4)cc[nH]c3=O)nc12 [BMS536924] (first compound 2 µM, partner dose 1 µM)", "cell count": 28.1}
{"smiles": "NC1(c2ccc(-c3nc4ccn5c(=O)[nH]nc5c4cc3-c3ccccc3)cc2)CCC1", "note": "+ NCC(=O)Nc1ccc(-n2nc(C(F)(F)F)cc2-c2ccc3c(ccc4ccccc43)c2)cc1 [OSU03012] (first compound 2 µM, partner dose 5 µM)", "cell count": 84.3}
